175 sequences from publication PMC5515408 can be followed below.

The other results are listed elsewhere or left out. At the low end of the ranking, values are background and their order means little.

For the assay, the target named is MAX:MAX (p21) (UniProt P61244-2). The assay is described as follows: protein-binding microarray (anti-MAX antibody). Particulars: PBM: 15 mM Tris-HCl pH 7.5, 100 mM KCl, 0.075% NP40, 7.5 mM beta-mercaptoethanol, 375 ng/ul BSA, 8 ng/ul poly(dA-dT):(dA-dT), 550 ng complex, 60 min, room …; high values mean tight binding; double strand, one strand shown; sequences stand for … in CCGGC…TTAATAGCTAAGATTACTATATCGACG
TGATCGCAGGTA showed a binding signal (log2 normalized fluorescence) of -0.611.
In the case of TGAACCCTCGTA it was 0.0153; in that of TGAGCGGATGTA, -0.552.
As for TGATGGTGAGTA, the figure is 0.159; as for TGAGTAATAGTA, -1.2; as for TCGATCTTGTTC, -1.23.
As for TGACTATATGTA, the figure is -0.484; as for TGATCTCTGGTA, -1.24.
As to CGACACGTCGTA, the binding signal (log2 normalized fluorescence) was determined as 2.07.
The sequence TGAGAGAAGGTA returned a binding signal (log2 normalized fluorescence) of -0.88.
As for TGAAAAACGGTA, the figure is -0.472; as for TTACACATGGTA, 3.16; as for TGACCTGCGGTA, 0.226.
TGACGCCCTGTA showed a binding signal (log2 normalized fluorescence) of -0.163.
In the case of TGACACGTGACG it was 3.23; in that of TGACCCCGCGTA, 0.0878.
In the case of TGACTTCACGTA it was 0.108; in that of TGATCAACAGTA, -0.433.
Take TGAATTCTGGTA: the binding signal (log2 normalized fluorescence) is -0.697.
In the case of TGAGTCAATGTA it was -0.791.
With AGAAACGTGTTA, the binding signal (log2 normalized fluorescence) is 2.96.
As for TGATAGTCGGTA, the figure is -1.03.
In the case of TGAGCGTATGTA it was 0.0171; in that of TTACATGTGGAA, 3.25.
In turn, TGCCATGCGGTA came in with a binding signal (log2 normalized fluorescence) of 3.19.
TGATTCAATGTA came in with a binding signal (log2 normalized fluorescence) of -0.647.
In the case of TGAACGCAGGTA it was -0.0155.
As for GTACACGTGGTA, the figure is 3.3.
As for TGACACGTTGGA, the figure is 3.03.
TGACGCAGAGTA showed a binding signal (log2 normalized fluorescence) of -0.307.
In the case of TGACTGCGCGTA it was 0.0686.
In the case of TGATCATCCGTA it was -0.232; in that of TGAAGAAACGTA, -0.628; in that of TGAGGACCTGTA, -0.451.
As for TGAAGCTGGGTA, the figure is -0.831.
Sequence TGCTTCGTGGTA returned a binding signal (log2 normalized fluorescence) of 0.514.
In turn, TGAATCTGGGTA showed a binding signal (log2 normalized fluorescence) of -1.05.
As for TGAGGAATCGTA, the figure is -0.974.
As for TGAAGCAAGGTA, the figure is 0.831; as for TGACACGTTGCA, 3.2.
In the case of TGAGGAACAGTA it was -0.608; in that of TGAGGTATCGTA, -0.822.
TGATAACAAGTA returned a binding signal (log2 normalized fluorescence) of -0.448.
In the case of TGATTGAATGTA it was -0.686.
As for TGACGTGCAGTA, the figure is 1.57.
In the case of TGATGTGATGTA it was 0.229.
The sequence TGACACGCCGTC had a binding signal (log2 normalized fluorescence) of 2.56.
Regarding TCACGATGGGGC, the binding signal (log2 normalized fluorescence) is 2.64.
As to TGACCCTTAGTA, the binding signal (log2 normalized fluorescence) is -0.676.
In the case of TGATTGTGGGTA it was -0.261; in that of TGGGGCGTGGTA, 2.78; in that of TGACCGCTTGTA, -0.269.
Consider TGATAACTTGTA, for which the binding signal (log2 normalized fluorescence) was -0.694.
As for TGACCCGTTGTG, the figure is 0.408; as for ATGAGTATTCGC, 2.71.
In the case of TGCCACGTGATA it was 3.13; in that of AGCTACGTGGTA, 1.88; in that of TGACTTGTAGTA, -0.639.
As for TGACCCCTCGTA, the figure is -0.0393.
Sequence TGACGGGACGTA had a binding signal (log2 normalized fluorescence) of -0.212.
Consider TGAAGGGGTGTA, for which the binding signal (log2 normalized fluorescence) was 0.559.
As for TGACACGTGTTC, the figure is 3.35.
In the case of TGAGTCGGCGTA it was -0.932; in that of TGAGGCTTGGTA, -1.05; in that of TGACACGTTCAA, 2.53.
As for TGAGTCACTGTA, the figure is -0.498; as for TGAACGCGGGTA, 0.608.
TGAGACATGGTA registered a binding signal (log2 normalized fluorescence) of 0.82.
In the case of TGAAGTAATGTA it was -0.412; in that of TGATATACTGTA, -0.836; in that of TGACACGTCACA, 1.65.
For TGACGGAGCGTA, the binding signal (log2 normalized fluorescence) is -0.421.
TGAACTACTGTA gave a binding signal (log2 normalized fluorescence) of -0.623.
Regarding TGAGTGGGAGTA, the binding signal (log2 normalized fluorescence) worked out at 0.00597.
In the case of TGATCAGAAGTA it was 0.216; in that of TGAAGAGCGGTA, -0.757; in that of TGACGCGGTGTA, 0.533.
As for AAACACGTGGTA, the figure is 3.01.
Turning to TGAACGGGTGTA, the binding signal (log2 normalized fluorescence) was 0.199.
As for TGACAACGAGTA, the figure is 0.59; as for TGAACGGCCGTA, -0.823.
In the case of TGACCAAGCGTA it was -0.281.
As to TGATACGGGGTA, the binding signal (log2 normalized fluorescence) is -0.468.
In the case of TGAAGGGTCGTA it was -0.732; in that of TGACCCCTTGTA, -0.423; in that of TGAAATGAAGTA, -0.767.
Sequence TGAGGGGCAGTA returned a binding signal (log2 normalized fluorescence) of 0.631.
As for TGACACGTGTGC, the figure is 3.4.
As for TGAACCGTAGTA, the figure is -0.824; as for TGAAAATACGTA, -0.721.
The sequence TGATTGTATGTA registered a binding signal (log2 normalized fluorescence) of -0.473.
As to TGAGTTGGTGTA, the binding signal (log2 normalized fluorescence) is -0.601.
As for TGTATCGTGGTA, the figure is 1.98; as for TGACTTACAGTA, -0.522; as for TGATGCTTCGTA, -0.0312.
As for TGAAAGCGGGTA, the figure is -0.427; as for TGAGCCGCTGTA, -0.666.
TAACGCGTGGTA: the binding signal (log2 normalized fluorescence) was found to be 3.26.
In the case of CTAGTCTAGAAT it was -1.87; in that of TGACTAGACGTA, -0.859.
In the case of TGAAACGGGGTC it was 0.708; in that of TGATTCGCTGTA, -1.01; in that of TGATGACGAGTA, -0.276.
In the case of TGACCTAACGTA it was -0.26; in that of TGATGGGGAGTA, 0.478; in that of GATCACGTGGTA, 3.19.
The sequence TGAAACCACGTA returned a binding signal (log2 normalized fluorescence) of 1.26.
In the case of TGAAAGAATGTA it was -0.112.
In the case of TGAGTGTATGTA it was 0.074; in that of TCACCCGTGGTA, 2.54; in that of TGAGTGCTAGTA, -0.0126.
TGATTATTTGTA yielded a binding signal (log2 normalized fluorescence) of -0.812.
Sequence TGAAATACGGTA displayed a binding signal (log2 normalized fluorescence) of -0.52.
As for TGGTCCGTGGTA, the figure is -0.0276; as for TTCGCTCTTTGA, -1.73.
In the case of TGACACATGGTG it was 2.9.
As for TGATATACGGTA, the figure is -0.908.
For the sequence TGACTCCACGTA, the binding signal (log2 normalized fluorescence) is 0.671.
As for TGAGCGAGGGTA, the figure is 0.0182.
Consider AGAGACGTGGTA, for which the binding signal (log2 normalized fluorescence) amounted to 1.84.
Take TGACCTAGGGTA: the binding signal (log2 normalized fluorescence) is -0.796.
TGAGCGCACGTA displayed a binding signal (log2 normalized fluorescence) of 0.494.
In the case of TGAGACTGAGTA it was -0.843; in that of TGAATAATGGTA, -0.711; in that of TGATGCCCTGTA, -0.309.
In the case of TGTCACGTGGGA it was 3.2; in that of TGACACGGTCTA, 0.715; in that of TGAGCCCCCGTA, -1.03.
In the case of TGATCCCGCGTA it was -0.582; in that of TGAGCTTAGGTA, -1.27; in that of TGAAACTATGTA, -0.464.
With TGAGTGTAGGTA, the binding signal (log2 normalized fluorescence) is -0.311.
As for TGAGGTGTTGTA, the figure is -0.544.
As for TGATTCGTAGTA, the figure is -1.09.
TGAGCTAGTGTA showed a binding signal (log2 normalized fluorescence) of -0.962.
As for TGAGATGGAGTA, the figure is -0.522; as for TGATAGCGTGTA, 2.05.
In the case of TGAAAGAAAGTA it was -0.892.
Turning to TGAAGATGGGTA, the binding signal (log2 normalized fluorescence) was -0.502.
TGATGCGCAGTA registered a binding signal (log2 normalized fluorescence) of -0.217.
In the case of TGATGTCCGGTA it was -0.197.
TGACCCGAGGTA displayed a binding signal (log2 normalized fluorescence) of 0.407.
As for TGATACATCGTA, the figure is -0.0107; as for TGAACCTCTGTA, -0.609.
The sequence TGAGTTAAGGTA came in with a binding signal (log2 normalized fluorescence) of -0.884.
In turn, TGATGAGGAGTA returned a binding signal (log2 normalized fluorescence) of -0.42.
Take TGAGCTCTCGTA: the binding signal (log2 normalized fluorescence) was -0.957.
For TGATACGTGGTA, the binding signal (log2 normalized fluorescence) was found to be 0.871.
In the case of TGAGCATAGGTA it was -0.237.
In the case of TGATCGACAGTA it was -0.514.
In turn, TGACACGCGGTA returned a binding signal (log2 normalized fluorescence) of 3.1.
In the case of TGATCAGGCGTA it was 0.582.
With TGACTCGTGTTA, the binding signal (log2 normalized fluorescence) amounted to 2.83.
As for TGACTAGCCGTA, the figure is -1.17.
In the case of TGAGCGAATGTA it was -0.603; in that of TGATTCCTAGTA, -1.08; in that of TGAGGAGTAGTA, -0.971.
The sequence TGACAAGTGGAG gave a binding signal (log2 normalized fluorescence) of 0.717.
As for TGAGGGCGAGTA, the figure is -0.462.
On to TGACTGTTGGTA, for which the binding signal (log2 normalized fluorescence) is -0.43.
Turning to TGAGAGACAGTA, the binding signal (log2 normalized fluorescence) is -0.843.
In turn, TGATGCCCCGTA registered a binding signal (log2 normalized fluorescence) of -0.267.
In the case of TGAGAAACAGTA it was -0.85.
As for TGAGGTGTAGTA, the figure is -0.642; as for TGAATCTGAGTA, -1.09; as for TGACGATCTGTA, -0.62.
In the case of GGACAGGTGGGA it was 2.85; in that of TGGCACGAGGTA, 3.26; in that of TGAACCGCAGTA, -0.485.
The sequence TGAGAAAGTGTA had a binding signal (log2 normalized fluorescence) of -0.805.
As for TGATATTCTGTA, the figure is -1.35.
As for TGAATAGACGTA, the figure is -0.987; as for TGATGGTTGGTA, -0.0272.
As for TGACAGGTAGTA, the figure is 0.00138; as for TGAGTGATAGTA, -0.499.
